Measurements taken from the RNAGym collection of RNA variant scans (doi:10.1073/pnas.2313332121).
Variants at the floor of the assay are shown more often than the library holds them.

B1: TPR 5TU (parent)
chain: GGAUCUUCUCGAUCUAACAAAAAAGACAAAUCUGCCACAAAGCUUGAGAGCAUCUUCGGAUGCAGAGGCGGCAGCCUUCGGUGGCGCGAUAGCGCCAACGUUCUCAACUAUGACACGCAAAACGCGUGCUCCGUUGAAUGGAGUUUAUCAUG

Variants of: B1
Assay: polymerase ribozyme fitness, log enrichment relative to wild type (log ratio); higher = more active; in vitro selection for triplet polymerase activity
Method in brief: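 Mutant libraries of each subunit of a heterodimeric triplet polymerase ribozyme were built by PCR and transcribed. Each library went through one round of in vitro selection in triplicate: annealing with biotinylated primer, partner subunit and triplets, frozen incubation at −7 °C, gel excision of extended constructs, streptavidin-bead capture and RT-PCR. Input and output libraries were Illumina-sequenced; only genotypes with ≥10 input reads and ≥1 read per output were kept. Fitness is log2(genotype enrichment/wild-type enrichment), using inverse-variance-weighted replicate averages.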

Point of comparison: GGAUCUUCUCGAUCUAACAAAAAAGACAAAUCUGCCACAAAGCUUGAGAGCAUCUUCGGAUGCAGAGGCGGCAGCCUUCGGUGGCGCGAUGGCGCCAACGUUCUCAACUAUGACACGGAAAACGCGUGCUCCGUUGAAUGGAGUUUAUCAUG [A91G C118G], “polymerase ribozyme fitness (log ratio)” value -3.49. Against it:
- GGAUCUUCUCGAUCUAACAAAAAAGACAAAUCUGCCACAAAGCUUGAGAGCAUCUUCGGAUGCAGAGGCGGCAGCCUUCGGUGGCGCGAUGGCGCCAACGUUCUCAACUAUGACACGUAAAACGCGUGCUCCGUUGAAUGGAGUUUAUCAUG [A91G C118U] — higher, -3.15
- GGAUCUUCUCGAUCUAACAAAAAAGACAAAUCUGCCACAAAGCUUGAGAGCAUCUUCGGAUGCAGAGGCGGCAGCCUUCGGUGGCGCGAUUGCGCCAACGUUCUCAACUAUGACACGCAAAACGCGUGCUCCGUUGAAUGGAGUUUGUCAUG [A91U A147G] — lower, ≤ -4.2
- GGAUCUUCUCGAUCUAACAAAAAAGACAAAUCUGCCACAAAGCUUGAGAGCAUCUUCGGAUGCAGAGGCGGCAGCCUUCGGUGGCGCGAUUGCGCCAACGUUCUCAACUAUGACGCGCAAAACGCGUGCUCCCUUGAAUGGAGUUUAUCAUG [A91U A115G G133C] — lower, ≤ -4.2
- GGAUCUUCUCGAUCUAACAAAAAAGACAAAUCUGCCACAAAGCUUGAGAGCAUCUUCGGAUGCAGAGGCGGCAGCCUUCGGUGGCGCGAUUGCGCCAACGUUCUCAACUAUGCCACGCAAAACGCGUGCUCCGUUGAAUGGAGUUUAUCAUG [A91U A113C] — lower, ≤ -4.2
- GGAUCUUCUCGAUCUAACAAAAAAGACAAAUCUGCCACAAAGCUUGAGAGCAUCUUCGGAUGCAGAGGCGGCAGCCUUCGGUGGCGCGAUUGCGCCAGCGUGCUUAACUAUGACACGCAAAACGCGUGCUCCGUUGAAUGGAGUUUAUCAUG [A91U A98G U102G C105U] — lower, ≤ -4.2
- GGAUCUUCUCGAUCUAACAAAAAAGACAAAUCUGCCACAAAGCUUGAGAGCAUCUUCGGAUGCAGAGGCGGCAGCCUUCGGUGGCGCGAUGGCGCCAACUUUCUCAACUAUGUCACGCAGAACGAGUGCUCCGUUGAAGGGAGUUUAUCAUG [A91G G100U A113U A120G C125A U139G] — lower, ≤ -4.2
- GGAUCUUCUCGAUCUAACAAAAAAGACAAAUCUGCCACAAAGCUUGAGAGCAUCUUCGGAUGCAGAGGCGGCAGCCUUCGGUGGCGCGAUUGCGCCUACGUUCUCAACUAUGACACGCAAAACGCGUGCUCCGUUGAAUGGAGUUUAUCAUG [A91U A97U] — lower, ≤ -4.2
- GGAUCUUCUCGAUCUAACAAAAAAGACAAAUCUGCCACAAAGCUUGAGAGCAUCUUCGGAUGCAGAGGCGGCAGCCUUCGGUGGCGCGAUUGCGCCAACGUUCUCAACUAUGACGCGUAAAACGCGGGCUCCGUUGAAUGGAGUUUAUCAUG [A91U A115G C118U U127G] — lower, ≤ -4.2
- GGAUCUUCUCGAUCUAACAAAAAAGACAAAUCUGCCACAAAGCUUGAGAGCAUCUUCGGAUGCAGAGGCGGCAGCCUUCGGUGGCGCGAUUGCGCCAACGUUCUCGACUAUGACACGCAAAACGCGUGCUCCGUGGAAUGGAGUUUAUCAUG [A91U A106G U135G] — lower, ≤ -4.2
- GGAUCUUCUCGAUCUAACAAAAAAGACAAAUCUGCCACAAAGCUUGAGAGCAUCUUCGGAUGCAGAGGCGGCAGCCUUCGGUGGCGCGAUGGCGCCAACAUUCUCAACUAUGACACGCAAAACGCGUGCUCCGUUGAAUGGAGUUUAUAAUG [A91G G100A C149A] — lower, ≤ -4.2
- GGAUCUUCUCGAUCUAACAAAAAAGACAAAUCUGCCACAAAGCUUGAGAGCAUCUUCGGAUGCAGAGGCGGCAGCCUUCGGUGGCGCGAUUGCGCCAACGUUCUCAACUAUGCCACGCAAAACGCGUGCUCCGUUGAAUGGAGUUUAUCCUG [A91U A113C A150C] — lower, ≤ -4.2
- GGAUCUUCUCGAUCUAACAAAAAAGACAAAUCUGCCACAAAGCUUGAGAGCAUCUUCGGAUGCAGAGGCGGCAGCCUUCGGUGGCGCGAUGGCGCCAACCUUCUCAACUAUGACACGCCAAACGCGUGCACCGUUGAAUGGAGUUUAUCAUG [A91G G100C A119C U130A] — lower, ≤ -4.2
- GGAUCUUCUCGAUCUAACAAAAAAGACAAAUCUGCCACAAAGCUUGAGAGCAUCUUCGGAUGCAGAGGCGGCAGCCUUCGGUGGCGCGAUGGCGCCAACGUUCUCAACUAUGACACGCAAAACGCGUGCUCCGUUGAAUGGAGUGUAUCAUG [A91G U145G] — lower, -3.96
- GGAUCUUCUCGAUCUAACAAAAAAGACAAAUCUGCCACAAAGCUUGAGAGCAUCUUCGGAUGCAGAGGCGGCAGCCUUCGGUGGCGCGAUUGCGCCAACGUUCUCAACUAUGAUACGCAAAACGCGUGCUCCGUUGAAUGGAGUUUAGCAUG [A91U C114U U148G] — lower, ≤ -4.2
- GGAUCUUCUCGAUCUAACAAAAAAGACAAAUCUGCCACAAAGCUUGAGAGCAUCUUCGGAUGCAGAGGCGGCAGCCUUCGGUGGCGCGAUGGCGCCAACGUUCUCAACUAUGAAAUGCAAAACGCGUGCUCCGUUGCAUGGAGUUUAUCAUG [A91G C114A C116U A137C] — lower, -3.79
- GGAUCUUCUCGAUCUAACAAAAAAGACAAAUCUGCCACAAAGCUUGAGAGCAUCUUCGGAUGCAGAGGCGGCAGCCUUCGGUGGCGCGAUUGCGCCAACGUUCUCAAGUAUGACACGCAAAACGCGUGCUCCGUUGAAUGGAGUUUAUCAUG [A91U C108G] — lower, ≤ -4.2
- GGAUCUUCUCGAUCUAACAAAAAAGACAAAUCUGCCACAAAGCUUGAGAGCAUCUUCGGAUGCAGAGGCGGCAGCCUUCGGUGGCGCGAUUGCGCGAGCGUUCUGAACUAUGACACGCAAAACGCGUGCUCCGUUGAAUGGAAUUUAUCAUG [A91U C96G A98G C105G G143A] — lower, ≤ -4.2
- GGAUCUUCUCGAUCUAACAAAAAAGACAAAUCUGCCACAAAGCUUGAGAGCAUCUUCGGAUGCAGAGGCGGCAGCCUUCGGUGGCGCGAUUGUGCCAACGUUCUCAACUAUGACACGCAAAACGCGUGCUCCGUUGAAUGGAGUUUAUCAUG [A91U C93U] — lower, ≤ -4.2
